Test results taken from paper PMC12136788.
The list shows a part of the results.

T1: UNK ZnF1-3 (human, UniProt Q9C0B0 31-174)
T1 sequence: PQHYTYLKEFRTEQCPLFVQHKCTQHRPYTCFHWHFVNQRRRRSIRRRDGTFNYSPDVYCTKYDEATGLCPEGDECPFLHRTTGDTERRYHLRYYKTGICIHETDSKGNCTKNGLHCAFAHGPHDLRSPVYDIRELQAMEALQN

B1: 107480438_107480558_1777_3pUTR_ENSMUSG00000020721_ENSMUST00000106746|mouse|control|control (ssRNA)
RNA: GGGAGUUCUACAGUCCGACGAUCUUUUGUUUUUUCUUCAAUAGUAGCUUCAUAAACCUUCUCUUUGGUUCCCUGGGACUGAACGAGCUUCUCUUUAGGGACUGGUAAUAAAUAAACAGCAUUGACCCUGGUCAUCACCAGCCGCAACAGAGGAUUGAGCAUCA
B2: chr11:69466387:69466388:+_ENSG00000110092_ENST00000227507|hu_mus|motif|central (ssRNA)
RNA: GGGAGUUCUACAGUCCGACGAUCUUAAAAACAUAUAAAAGAAUCAAAACUCCUUCUCAAGACUUCCCCUGUGUUAAUCCGGCUCUUAGAACAGACAAGCACAUUAAUAGAAAACUAGUUGAUUACUGGGGUACAGAAUUCUAUCAACAGAGGAUUGAGCAUCA
B3: chr6:30681072:30681073:-_ENSG00000137337_ENST00000376406|hu_mus|FALSE|FALSE (ssRNA)
RNA: GGGAGUUCUACAGUCCGACGAUCAGAGGACUCCUCUACUCCUGGUUGCUGACCUUGUUCUUCAUCAGUGUCACUGCCCAAACCAAAGGGUGAAGAUGGCCCGGGGACACUUGGGGCCGGAGAAGAGACCUCUUCAUCACUUUCCAACAGAGGAUUGAGCAUCA
B4: chr13:55314627:55314628:+_ENSMUSG00000021488_ENSMUST00000099490|mus_mus|FALSE|FALSE (ssRNA)
RNA: GGGAGUUCUACAGUCCGACGAUCCUCAGAAAAAUUGGAUUGACCAUUACCGAAAGGGCUGUCCUUGUCUUCGGAGGCAUCUAAAUUCACCGGAUUAGAAAAGGACAGCAGACAAUUUCUUCUAGAUAAUUCACAAGUCCGAUCCAACAGAGGAUUGAGCAUCA
B5: 44566837_44567071_572_CDS_ENSMUSG00000032096_ENSMUST00000034607|mouse|control|control (ssRNA)
RNA: GGGAGUUCUACAGUCCGACGAUCACGUUCUUGAGUCUCUCUGACUGCUCGGAAUACUUUCUCCUCGUGAGAGUCCAUUUCUGUAAAGGUUCUGAUCUGUGCCAGGUUAACAUUCUCCCGGUAUCCCAGGGCAACAAUUUCAUCCAACAGAGGAUUGAGCAUCA
B6: 100944326_100944446_200_CDS_ENSMUSG00000001755_ENSMUST00000001806|mouse|control|control (ssRNA)
RNA: GGGAGUUCUACAGUCCGACGAUCCAGGUGCACAUAGAGGGUGUGAUUCACCAGGCGGGACGCCGAGGUCAGGAUGGGAGGCAGGCGUGCGGCCAGGGUGGCCAGCGGCGUUGUCAGCACCAGGAGGCCUGAGCGGAACACGGCCAACAGAGGAUUGAGCAUCA
B7: chr7:151048522:151048523:+_ENSG00000013374_ENST00000566856|hu_mus|hu_hu_hu_mus_True|78_78 (ssRNA)
RNA: GGGAGUUCUACAGUCCGACGAUCCUGUUUCUUAUUUAUUACGAUCUUGAUGUAAUUUUCUUGAAGUCCGAAAGUUUCAGCUAUUUGACACCUCAGGUCUCUACCAGUGACAUGCAAGCGGGUCUCCAACAAGCUUUUCUUAUCCAACAGAGGAUUGAGCAUCA
B8: chr14:89338683:89338684:+_ENSG00000165533_ENST00000346301|hu_hu|hu_hu_hu_mus_False|58_58 (ssRNA)
RNA: GGGAGUUCUACAGUCCGACGAUCGUGGUUGUUGUGGACCAGGGCCAGCCUGAAGCAUUGGUGGGCCAAGUUUGUAUCUCCUAUUCCCACAGCUAUGUGCCCCAGGUUGUACCAGACAUCAGCUGCCUCUUCUUCAUUUUCAGCCAACAGAGGAUUGAGCAUCA
B9: chr4:106720802:106720803:+_ENSMUSG00000061887_ENSMUST00000030367|mus_hu|FALSE|FALSE (ssRNA)
RNA: GGGAGUUCUACAGUCCGACGAUCGUUUUGUCCUUCUUGUUUUAUGGAAUAAAAAGUUUGGCCUUUUUAUUGCAUGAAACUAAAAUUGGGAAAGGUAGGGGGCGUGGAUGGGGUGGGAGGGGGUUGAGGGGAGCAGGGAGAUGCCAACAGAGGAUUGAGCAUCA
B10: chr5:108714581:108714582:-_ENSG00000198961_ENST00000361557|hu_mus|FALSE|FALSE (ssRNA)
RNA: GGGAGUUCUACAGUCCGACGAUCUGACAGGUCAGCGUAGAUCUCUGCCUCUCCAUUUUCCAGCUCAAAGACUGCACGGCCUAACCCCUUCUGAUGUCUACCACCUUCCACAGCUUCAGCGCCAAGUUGAAGAGAGCCAUUCUCCAACAGAGGAUUGAGCAUCA
B11: chr7:75932113:75932114:+_ENSG00000106211_ENST00000248553|hu_hu|hu_hu_hu_mus_False|1_58 (ssRNA)
RNA: GGGAGUUCUACAGUCCGACGAUCCUGCGACCACUCAUCGGGCAACCGGGGCACCCCGAAAGCUUGAUCGAAGAGGCGGCUAUGCGGAGGGUACCAGUCCCGGAAUGGUUCCCAGCUCGGGCUCCGCAGCAGCGAGAGGACGCGCAACAGAGGAUUGAGCAUCA
B12: chr3:87342203:87342204:+_ENSMUSG00000003382_ENSMUST00000170036|mus_mus|FALSE|FALSE (ssRNA)
RNA: GGGAGUUCUACAGUCCGACGAUCCCGAGUGCCAUCCCUUGCCUCAGCAGAUAGGAAACCAUUUCUUCUUGCUGCUCUGAGCUACUAGAGCACACACGUGCACAGAGGCCGUUGGCUGGUGCCGCUUUCUCUCUACCCUAGUGCCAACAGAGGAUUGAGCAUCA
B13: chr13:30959905:30959906:-_ENSMUSG00000021357_ENSMUST00000021785|mus_mus|motif|central (ssRNA)
RNA: GGGAGUUCUACAGUCCGACGAUCAUGGAUGCUUCCAAACAAAUCAGGAGAAGAAACAUCAACAGAAAGAUGAGUAGUAUCGGUGUCUGCAUCAGGCUUGGUGCUCAGUUGUUCCAGGCAGUAUAUAAAAACCUGCAUGAUAUUCAACAGAGGAUUGAGCAUCA
B14: 156046937_156047057_930_CDS_ENSG00000254726_ENST00000532414|human|control|control (ssRNA)
RNA: GGGAGUUCUACAGUCCGACGAUCGGGCUUGCAGCCGGGCUGGUGCACCCGCCAGGCGUCGGAGUAGCGGCUAUCGAUUGCUGCGUCGGGGCUCCCCGCCAGGAAGUCGUUUUCAUUGUUGUACUCGAGGAUCUUGCCAGUGCGCAACAGAGGAUUGAGCAUCA
B15: chr7:135612270:135612271:-_ENSG00000105887_ENST00000393085|hu_mus|hu_hu_hu_mus_False|38_38 (ssRNA)
RNA: GGGAGUUCUACAGUCCGACGAUCGUUUUUUUCUGAGAUGUUAAAUAGUACUUCAGUGGAAAACAAAACUUAACCUUUUAUUAAUGCGUGUUGUACCAGAAAGCAAAAUUUUAGCUUCAUUUAUUCAAAAAUAUUAACAUUAAGCAACAGAGGAUUGAGCAUCA
B16: chr10:62544473:62544474:+_ENSG00000170312_ENST00000395284|hu_mus|FALSE|FALSE (ssRNA)
RNA: GGGAGUUCUACAGUCCGACGAUCAGUGACUCUGUGUCUACCCUUAUACACCACACCGUAAGUACCUUCUCCAAUUUUCUCUAUUUUGAUAUAGUCUUCCAUAGUUACUCAACAGGUUACGACGGACCCUCUCGUGAGCUGUUCCAACAGAGGAUUGAGCAUCA
B17: chr3:179287964:179287965:+_ENSG00000136518_ENST00000429709|hu_hu|hu_hu_hu_mus_True|1_28 (ssRNA)
RNA: GGGAGUUCUACAGUCCGACGAUCCUUGAGUGGUGAGAUGGCCUCCAUGUUCUCCCUGGGCACGCGGAGGGCAUUGGUGUCUAUGUAGUAGGUGGGCCCGCCCUGCUUGCCUUUAUCACCAUCAAUCUCCAUCAUUGUGCUUCCCAACAGAGGAUUGAGCAUCA
B18: chr2:9728443:9728444:-_ENSG00000134308_ENST00000238081|hu_mus|FALSE|FALSE (ssRNA)
RNA: GGGAGUUCUACAGUCCGACGAUCCUGCAUCUCCUUCUUGCUUAUAUCAAACGCCUCUUGGUAGGCUCCUUGGGAAUUUUCUAUUGUUUGUUUUCGAUCAUCGCCACAAGCUACUUCAGCAAGAUACCGGAAAUAAUCUCCCUUCAACAGAGGAUUGAGCAUCA
B19: chr4:43572504:43572505:-_ENSMUSG00000028465_ENSMUST00000123985|mus_mus|FALSE|FALSE (ssRNA)
RNA: GGGAGUUCUACAGUCCGACGAUCUCUCUCCAUUAGGUCAGUCGAAGAUGAGUCAAAGGUAUCGUCCCAGGCACAGAGAAUAGCACUAGCAAAGGUUGAGAGGCAGGAGAUCUCGGAGGAAUGCCCAGGAAAGUGAGGAGGCAACAACAGAGGAUUGAGCAUCA
B20: chr16:94690093:94690094:+_ENSMUSG00000040785_ENSMUST00000117648|mus_hu|mus_mus_mus_hu_True|68_68 (ssRNA)
RNA: GGGAGUUCUACAGUCCGACGAUCGGGCUGGGAUGACGGACACACAGCCUCGAUUCCAGGGGGAAAAAAAAAUAGCCGAUACUAAUUAAAAAGUGUUAAUGAUUUUUGAAAAUCAGAUUACAUCUAUAAAAGAUGAAAAGCAAACAACAGAGGAUUGAGCAUCA
B21: 36956110_36956230_3162_CDS_ENSMUSG00000029190_ENSMUST00000132383|mouse|control|control (ssRNA)
RNA: GGGAGUUCUACAGUCCGACGAUCAUCCAGUGAUGUCUGAGCACUCUUCUCCAUUCCAGAUUUUUUUAACCUGGGCAGGAACUUCCCAGACUCAAGCUCUAACUUUCCAUAGUAGUGACCUUCUUUCUCUGCAUCUUCCUCUAACAACAGAGGAUUGAGCAUCA
B22: chr13:90244479:90244480:+_ENSMUSG00000012422_ENSMUST00000161568|mus_mus|FALSE|FALSE (ssRNA)
RNA: GGGAGUUCUACAGUCCGACGAUCUCUGGUUAGCAAUCCAAAGGGUUUAAAUAUGAAUGCAAUCCAUAAGAACAGUAACAACAACAAAAAUAGAACAAGUUUUUUUCUCAAUAAAAAUAGGCCAGUCGCUAGAAGGUACCAUUCCAACAGAGGAUUGAGCAUCA

The binders below were run against T1, UNK ZnF1-3 (assay: nsRBNS (natural sequence RNA bind-n-seq); RBNS binding buffer (assumed for nsRBNS): 25 mM Tris pH 7.5, 150 mM KCl, 3 mM MgCl2, 0.01% Triton X-100, 500 ug/ml BSA, 20 U/ml SUPERase-In, 4 C; UNK is unkempt and MSI1 is Musashi-1; names of the RNAs are library labels; protein concentration not given here; high values mean tight binding).

First: B1
Second: B2
The binding signal of the first is lower: 0.886 enrichment R for the first, 2.28 enrichment R for the second.

First: B3
Second: B4
The binding signal of the first is lower: 1.09 enrichment R for the first, 1.47 enrichment R for the second.

Going from B5 to B6, the binding signal rises from 0.654 enrichment R to 2.19 enrichment R.

Compared with B7, B8 is lower in binding signal: 0.659 enrichment R for the first, 0.611 enrichment R for the second.

Going from B9 to B10, the binding signal rises from 0.945 enrichment R to 1.09 enrichment R.

Going from B11 to B12, the binding signal rises from 0.717 enrichment R to 0.889 enrichment R.

Compared with B13, B14 is lower in binding signal: 1.78 enrichment R for the first, 1.47 enrichment R for the second.

Going from B15 to B16, the binding signal falls from 2.24 enrichment R to 0.711 enrichment R.

Compared with B17, B18 is higher in binding signal: 0.676 enrichment R for the first, 0.939 enrichment R for the second.

Going from B19 to B20, the binding signal falls from 2.28 enrichment R to 1.64 enrichment R.

First: B21
Second: B22
The binding signal of the first is lower: 0.531 enrichment R for the first, 1.4 enrichment R for the second.
